Tests used:
Cyp2c29/Cyp2c37 [1] = assay: Example 2: MRM of combined light/heavy ICAT labeled control and phenobarbital induced liver microsomes; conditions: Cyp2c29/Cyp2c37, based on MRM peak areas, FIG. 6
Cyp2d22/Cyp2d26 = assay: Example 1: MRM quantitation of P450 expression in liver microsomes, phenobarbital induced vs control; conditions: ratio of phenobarbital induced (IND) to control (CT) mouse liver microsomes, average of 4 experiments
Cyp4a10/Cyp4a14 = assay: as above; conditions: ratio of phenobarbital induced (IND) to control (CT) mouse liver microsomes, average of 4 experiments
Cyp2c29/Cyp2c37 [2] = assay: as above

With `CCC1(c2ccccc2)C(=O)NC(=O)NC1=O` [phenobarbital] the “increase in expression of the induced sample over the control sample” value (Cyp2c29/Cyp2c37 [1]) was roughly 3 fold, the IND/CT (Cyp2d22/Cyp2d26) was 10.90 and the IND/CT (Cyp4a10/Cyp4a14) was 11.61. For the same molecule, the “increase in expression upon drug treatment over control” value (Cyp2c29/Cyp2c37 [2]; Cyp2c29/Cyp2c37, Example 1, mouse liver microsomes) was “about 3 fold” and the Change (Cyp2c29/Cyp2c37 [2]; Cyp2c29/Cyp2c37, qualitative change in IND samples relative to CT, mouse liver microsomes) was “up”.
